A number of entries come with more than one value. Only these are listed. An entry can have further records. The records of an entry are repeated measurements in other runs, samples, wells, individuals or studies. Signs of the kind (2×) say how often a value occurs here. Dates in brackets are months of testing.
Test system: KRAS PDC multicell spheroid viability
Assay: Anticancer human tumor 825966-067-R-J1-PDC patient-derived colon carcinoma cell line growth inhibition [KRAS2]
Conditions: for viability, T/C: stronger effect = lower value
Description: Multicellular complex tumor spheroid response to RAS pathway inhibitors in combination with a targeted agents in patient-derived cell lines with oncogenic KRAS variants from multiple cancer types
A high-throughput screen of multi-cell type tumor spheroids was designed to identify active combinations of targeted small molecules and KRAS pathway inhibitors. Complex spheroids include a stromal component modeled by human endothelial cells (HUVEC) and fibroblasts modeled by human mesenchymal stem cells (MSCs). The concentration ranges selected for each drug and investigational agent were based upon clinically achievable concentrations if the clinical Cmax of the agent was known.
Compounds. The drugs and investigational agents: BI-3406 (NSC825286), BAY-293 (NSC824723), batoprotafib (TNO155; NSC825523), sotorasib (AMG 510; NSC818433), MRTX1257 (NSC819558), elimusertib (BAY 1895344; NSC800525), molibresib (GSK525762; NSC774829), temuterkib (LY3214996; NSC803410), venetoclax (NSC766270), alisertib (NSC759677), olaparib (NSC753686), talazoparib (NSC767125), erdafitinib (NSC781556), ipatasertib (NSC767898), cabozantinib (NSC761068), nintedanib (NSC756659), abemaciclib (NSC768073), docetaxel (NSC628503), trametinib (NSC758246), and sapanisertib (NSC764658) were obtained from the National Cancer Institute (NCI) Developmental Therapeutics Program Chemical Repository. The FDA-approved anticancer drug set is available from the Developmental Therapeutics Program. […] The stock solutions were prepared in dimethyl sulfoxide (DMSO, Sigma-Aldrich, St. Louis, MO, cat. D2650) at 800-fold the tested concentration and stored at -70 degrees C prior to their use. All drugs and investigational agents were tested over a range starting from a high concentration at or near the clinical Cmax and decreasing in half-log increments. If the clinical Cmax for an agent had not been determined, the highest concentration tested was 10 microM.
Cell Culture. All cells were maintained in an incubator at 37 degrees C and 5% CO2 with 95% humidity. The PDC lines were cultured according to standard operating procedures established by the NCI PDMR (https://pdmr.cancer.gov/sops/default.htm). Briefly, all PDCs were thawed and cultured in Matrigel-coated flasks prepared with a working solution of 1X Ham's F-12 nutrient mix, without supplementation (Invitrogen, Waltham, MA, cat. 11765054), 100 U/mL penicillin-streptomycin (Invitrogen, cat. 15140122), and 2.5% Matrigel (Corning Inc., Corning, NY, cat. 354248) for the first three passages. All PDCs were cultured in complete DMEM/F-12 media containing advanced DMEM/F-12 (Invitrogen, cat. 12634028), 4.9% defined fetal bovine serum, heat inactivated (HyClone Laboratories Inc., Logan, UT, cat. SH30070.03HI), 389 ng/mL hydrocortisone (Sigma-Aldrich, cat. H4001), 9.7 ng/mL human EGF recombinant protein (Invitrogen, cat. PHG0313), 23.4 microg/mL adenine (Sigma-Aldrich, cat. A2786), 97.3 U/mL penicillin-streptomycin (Invitrogen, cat. 15140122), 1.9 mM L-glutamine (Invitrogen, cat. 25030081), and 9.7 microM Y-27632 dihydrochloride (Tocris Bioscience, Bristol, United Kingdom, cat. 1254). The PDCs were cultured in complete DMEM/F12 media without 9.7 microM Y-27632 dihydrochloride for at least two passages prior to the screen. The established cell line HOP-62 was cultured in RPMI 1640 medium, HEPES (Invitrogen, cat. 22400105) with 10% defined fetal bovine serum (HyClone Laboratories Inc., cat. SH30070.03) and 2 mM L-glutamine (Invitrogen, cat. 25030081). The pooled donor HUVEC were cultured in endothelial cell growth medium 2 (PromoCell, Heidelberg, Germany, cat. C-22011) and the hMSC were cultured in mesenchymal stem cell growth medium 2 (PromoCell, cat. C-28009). For all experiments, HUVEC and hMSC were used at passages </=5, while the malignant cell lines were used at passages </=15. […]
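Also: spheroids exposed to compounds for 7 days.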
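For viability, T/C in this document: 100% = DMSO vehicle control viability.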

| SMILES | viability, T/C (compound alone 0.001 µM) | viability, T/C (compound alone 0.00316 µM) | viability, T/C (compound alone 0.0316 µM) | viability, T/C (compound alone 0.1 µM) | viability, T/C (compound alone 0.316 µM) | viability, T/C (compound alone 1 µM) | viability, T/C (compound alone 3.16 µM) | IC50 (compound alone, run of 09/02/2021) | viability, T/C (compound alone 10 µM) | viability, T/C (compound alone 0.000316 µM) | viability, T/C (compound alone 0.01 µM) |
| --- | --- | --- | --- | --- | --- | --- | --- | --- | --- | --- | --- |
| CC(=O)Nc1cccc(-n2c(=O)n(C3CC3)c(=O)c3c(Nc4ccc(I)cc4F)n(C)c(=O)c(C)c32)c1 | 106, 92.6, 92.4, 107, 81.3% | 125, 101, 97.4, 110, 98.8% | 50.6, 44, 63.9, 81.5, 86.1% | – | – | – | – | – | – | – | – |
| CNCc1ccccc1-c1csc(C(C)Nc2nc(C)nc3cc(OC)c(OC)cc23)c1 (stereo not given) | – | – | – | 89.6, 98.4, 99.6, 86.1, 88.8, 97, 74.2, 95.7, 82.6, 88.5, 91% [2021-08] and 109, 92.4, 91.9, 85.5, 83.5, 116% [2021-09] | 90.4, 100, 85.8, 90.2, 91.8, 93.8, 103 (2×), 96.3, 81.3, 78.3% [2021-08] and 100, 93.7, 85.9, 79.5, 90.1, 105% [2021-09] | 73.5, 112, 81, 96.1, 91, 98, 111, 98.5, 113, 80.2, 73.3% [2021-08] and 108, 71.2, 92.5, 85.1, 97.1, 107% [2021-09] | 89.1, 65.6, 23.1, 30.3, 34.6, 2.21, 50.3, 58.7, 47.5, 57.8, 31.6% [2021-08] and 72.2, 1.97, 26.9, 66, 88.2, 89.9% [2021-09] | 2.08 µM and 4.5, 1.42, 4.19, 5.28 µM [2021-09] | – | – | – |
| CCNC(=O)CC1N=C(c2ccc(Cl)cc2)c2cc(OC)ccc2-n2c(C)nnc21 (stereo not given) | – | – | 82.2, 95.4, 118, 90.8, 91.8% | 81.4, 108, 101, 123, 112% | 102, 77.9, 104, 88.6, 134% | 108, 80.5, 95.3, 93.3, 98.5% | 93.2, 69.7, 99.2, 84.9, 106% | – | – | – | – |
| C=CC(=O)N1CCN(c2nc(=O)n(-c3c(C)ccnc3C(C)C)c3nc(-c4c(O)cccc4F)c(F)cc23)C(C)C1 (stereo not given) | – | – | – | 89.3, 90, 80.8, 82.2, 77.5, 82.3, 118, 82.6, 105, 99.2, 74.4% [2021-08] and 82, 93.8, 99.7, 101, 69.5, 72.2% [2021-09] | 93.3, 103, 81.5, 76.8, 77.3, 83.5, 99, 97.2, 88, 82.8, 81.3% [2021-08] and 88.2, 87.8, 89.5, 84.7, 76.8, 74.9% [2021-09] | 80.3, 76.5, 100, 75.3, 79.5, 81.6, 86.8, 95.7, 91.4, 99.6, 103% [2021-08] and 96.4, 83.8 (2×), 84.8, 75.2, 85.8% [2021-09] | 81.9, 83, 96.1, 68.8, 92, 69.9, 77.3, 89.2, 80.1, 95.9, 83.3% [2021-08] and 68.9, 75.2, 77.5, 96.8, 66.6, 81.9% [2021-09] | – | 81.5, 85.4, 79.2, 77.8, 72.6, 94.8, 88.7, 62, 85.5, 111, 97.3% [2021-08] and 89.4, 75.1, 76.8, 104, 77.1, 87.1% [2021-09] | – | – |
| CC(C)NCC(C(=O)N1CCN(c2ncnc3c2C(C)CC3O)CC1)c1ccc(Cl)cc1 (stereo not given) | – | – | 106, 109, 73.1, 81.3, 94.8% | 97.5, 109, 77.1, 92.1, 72.8% | – | 90.3, 94.2, 72.6, 128, 103% | – | – | – | – | – |
| CN(C)C/C=C/C(=O)Nc1cc2c(Nc3ccc(F)c(Cl)c3)ncnc2cc1O[C@H]1CCOC1 | 125, 99.7, 97.4, 105, 102% | 105, 115, 101, 85.6, 87.6% | 116, 104, 90, 86.9, 98.8% | – | – | – | – | – | – | 127, 92.5, 80.7, 94.4, 103% | 111, 98.4, 72.7, 79.3, 82% |
| C=CC(=O)N1CCN(c2nc(OCC3CCCN3C)nc3c2CCN(c2cccc4cccc(C)c24)C3)CC1CC#N (stereo not given) | – | – | 109 (2×), 91.4, 98.3, 80.7, 89.1, 95.3, 90, 77.9, 91.5, 84.9% [2021-08] and 89.4, 91.1, 111, 91.6, 78.2, 81.1% [2021-09] | – | 94.8, 83.3, 90.8, 84.8, 89.2, 81.4, 97.6, 82.2, 89.8, 96.8, 62.1% [2021-08] and 81.3, 88.7, 90.9, 96.5, 70.8, 82.4% [2021-09] | 97.5, 85.2, 104, 86.4, 88.2, 92.7, 87.1, 79.9, 85.6, 96.8, 83.2% [2021-08] and 95.1, 107, 103, 109, 78.2, 92.9% [2021-09] | 115, 83.2, 126, 79, 82.3, 68.1, 75.5, 83.4, 51.7, 106, 76.9% [2021-08] and 68.1, 126, 121, 34.6, 86, 89.6% [2021-09] | – | – | – | – |
| O=C(c1cc(Cc2n[nH]c(=O)c3ccccc23)ccc1F)N1CCN(C(=O)C2CC2)CC1 | – | – | 103 (2×), 110, 95.3, 83.8% | – | 108, 103, 96.3, 67.4, 76.1% | 110, 78.4, 88, 89, 69.4% | – | – | 88, 97.9, 82, 63.4, 63.6% | – | – |
| COC(=O)c1ccc2c(C(=Nc3ccc(N(C)C(=O)CN4CCN(C)CC4)cc3)c3ccccc3)c(O)[nH]c2c1 | – | – | – | – | – | 40.8, 61.5, 50.1, 74.5, 90.9% | – | – | – | – | – |

— PubChem BioAssay AID1963865 (Molecular Pharmacology Branch, DTP, NCI, 2024)
